This note sets out measurements from PubChem BioAssay (NCI).

The structures appear in SMILES notation. “And” between values parts separate entries of the source, which are not always exact repeats. Equal entries are not always repeated.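 Method: 48-hour compound exposure of cells in 96-well plates, five concentrations, linear interpolation of endpoints. At the GI50, growth is halved. TGI marks complete inhibition of growth.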

This assay relates to NCI-H322M lung. In words: NCI-60 cell line screen, 48 h.
`Cc1cc(OCc2nn(CN3CCN(C)CC3)c(=S)n2/N=C/c2ccc(-c3ccc(Cl)cc3Cl)o2)ccc1Cl` showed a TGI of more than 100 µM. In turn, `O=c1[nH]nc2ccccc2c1Cl` gave a TGI of 24.8 µM.

Regarding `[C-]#[O+].[C-]#[O+].[C-]#[O+].[C-]#[O+].[Ir].[Ir].[O-]c1ccc2ccccc2c1C=Nc1ccc(N=Cc2c([O-])ccc3ccccc23)cc1`, the GI50 is more than 100 µM and the TGI was more than 100 µM. In turn, `COc1cc(C[C@H]2C(=O)OC[C@@H]2Cc2ccc(OC)c(OC)c2)cc(OC)c1` yielded a TGI of more than 100 µM.

In turn, `COC(=O)C1C2C=CC(C2)C1(C(=O)OC)S(=O)CC12CCC(CC1O)C2(C)C` (configuration not stated) yielded a TGI of more than 100 µM. In turn, `COc1cc(-c2c(C#N)c(N)c(C#N)c3c2COc2ccccc2-3)cc(OC)c1OC` returned a TGI of more than 100 µM. Still for that read-out and setting: to `COC(=O)C12OC(C)(C(CC(=O)OC(C)(C)C)C1=O)C1C(=O)N(c3ccccc3)C(=O)C12` (configuration not stated) belongs more than 100 µM; to `COc1cc2nc(-c3cccs3)nc(N3C(c4ccc(O)cc4)=NNC(=O)c4ccccc43)c2cc1OC`, more than 100 µM.

As for `COc1cc(C2c3cc4c(cc3[C@@H](NCCN3CCCCC3)C3COC(=O)[C@H]23)OCO4)cc(OC)c1O` (some centres not stated), the TGI was more than 100 µM. As for `CN1CCN(c2nc(NCCCCNc3ccnc4cc(Cl)ccc34)c3ccccc3n2)CC1`, the GI50 is 2.62 µM and the TGI stood at 8.93 µM. Consider `COc1ccc(C/C(C)=C(\c2ccc(OCCN3CCOCC3)cc2)c2ccc(OC(=O)Cc3ccccc3)cc2)cc1`, for which the GI50 was 1.19 µM and the TGI was 20 µM. For `CCc1cccc2c3c(sc12)C(c1ccc(Cl)cc1)C(C#N)=C(N)O3` (configuration not stated) the same measures were 1.36 µM and 18.3 µM. For `COc1cc(NCc2ccc3nc(-c4ccccc4)c(N)nc3c2)cc(OC)c1OC`, the TGI was more than 100 µM. Take `O=C1/C(=C/c2ccccc2F)CNC/C1=C\c1ccccc1F`: the GI50 is 1.35 µM and 1.53 µM; the TGI is 4.28 µM and 3.75 µM. On to `Cc1nn(-c2ccccc2)c2c1CC(=O)Nc1ccccc1-2`, for which the GI50 is 0.427 µM and the TGI is more than 100 µM. On to `COC(=O)c1cc(-c2cc(OC)c(OC)c(OC)c2)[nH]c1N/N=C/c1c(Cl)cccc1Cl`, for which the GI50 was 4.63 µM and the TGI was more than 69.7 µM.

On to `C/C(=C\c1ccn(-c2ccc(N)c(F)c2)n1)[C@@H]1C[C@@H]2O[C@]2(C)CCC[C@H](C)[C@H](O)[C@@H](C)C(=O)C(C)(C)[C@@H](O)CC(=O)O1`, for which the GI50 is 0.0167 µM and the TGI was more than 50 µM. The compound `O=C1C=CC(=O)c2c(NCC3CC3)ccc(NCC3CC3)c21` returned a TGI of more than 100 µM. Turning to `CC(C)C[C@H](NC(=O)[C@H]1O[C@@H]1C(=O)O)C(=O)NCCc1ccc(O)cc1`, the GI50 is more than 100 µM and the TGI is more than 100 µM. In turn, `CCOP(=O)(OCC)/C(C#N)=C/c1ccc(-c2ccc(F)cc2F)o1` registered a TGI of 32.2 µM. Same read-out and setting: to `C=C1CCC2CC1[C@@H](C(=O)c1c[nH]c3ccccc13)NC2(C)C` (some centres not stated) belongs more than 37.5 µM; to `O=C1Nc2ccccc2C1Cc1ccc([N+](=O)[O-])cc1` (configuration not stated), more than 100 µM; to `COC(=O)[C@@H](O)[C@]1(C(=O)OC)C2O[C@@H](OC)[C@@H]1CCCCCC[C@H]2O`, more than 100 µM. `O=C(O)C12C3C4C1C1C2C3C1(Br)C41OCCO1` (configuration not stated) came in with a TGI of more than 100 µM.

`O=c1c2c(c1=O)C1(SCCCS1)c1cc(Cl)ccc1O2` displayed a TGI of more than 100 µM. On to `COc1ccc(C(=O)COc2cccc(/C=C3\CSc4ccccc4C3=O)c2)cc1`, for which the GI50 was 13.9 µM and the TGI is 33.7 µM. `CS(=O)(=O)OCCn1cnc2nc(NC(=O)c3ccccc3)[nH]c(=O)c21` gave a TGI of more than 100 µM. As for `C=CC(=O)N1CCN(c2nc(OC[C@@H]3CCCN3C)nc3c2CCN(c2cccc4cccc(C)c24)C3)C[C@@H]1CC#N`, the GI50 is 2.74 µM and the TGI was 11 µM. In the case of `COc1ccc(Cc2c(N)[nH]c(=O)n(C)c2=O)cc1`, the TGI is more than 100 µM.

`CC(=O)Oc1ccc2c(C)cc(=O)oc2c1` came in with a TGI of more than 100 µM. On the same count and under the same terms, the value for `CC(=O)NCCSC(=O)c1ccccc1` was 3.68 µM; that for `CC(O)(/C=C/c1ccccc1)P(=O)(O)c1ccccc1` (configuration not stated) was more than 100 µM. In the case of `C/C([O-])=C1\Cc2ccccc2C1=O.C/C([O-])=C1\Cc2ccccc2C1=O.CC[O-].CC[O-].[Ti+4]`, the GI50 was 32.1 µM and the TGI was more than 100 µM. On to `COc1ccc2oc(=O)cc(C)c2c1`, for which the TGI was more than 100 µM.

As to `CCn1c2ccccc2c2ccc3c(c21)C(=O)c1ccccc1C3=O`, the TGI was more than 100 µM. On the same count and under the same terms, to `N#C/C(=C1\NN=C(N)C(c2ccc(Cl)cc2)=C1O)c1ccc(Cl)cc1` belongs more than 100 µM; to `CCN(CCCN(CC)C(=O)Nc1ccccc1)C(=O)Nc1ccccc1`, more than 100 µM; to `CCC(CC)n1cc(C(=O)NC(=O)NCCCCCOC(=O)CCCCCCCCCCC(=O)OCCCCCNC(=O)NC(=O)c2cn(C(CC)CC)c(=O)[nH]c2=O)c(=O)[nH]c1=O`, more than 100 µM. Compound `CCCCNc1c(CN)cnc2cc(Cl)ccc12` displayed a TGI of 33.7 µM. The compound `CN1CCN(c2cc3c(cc2F)c(=O)c(C(=O)O)cn3C2CC2)CC1CC#N` (configuration not stated) yielded a TGI of more than 100 µM.

For the compound `COCC1N=C(c2cc(OC)c(OC)c(OC)c2-c2cc3c(cc2C2OCCCO2)OCO3)O[C@H]1c1ccccc1` (some centres not stated), the TGI is more than 100 µM. Still for that read-out and setting: the value for `N#CCC(=O)c1cc(OCc2cc(OCc3ccc(Br)cc3)cc(OCc3ccc(Br)cc3)c2)cc(OCc2cc(OCc3ccc(Br)cc3)cc(OCc3ccc(Br)cc3)c2)c1` was more than 100 µM.

In the case of `C[C@]12CC[C@@H]3c4ccc(O)cc4CC[C@H]3[C@@H]1CC[C@@H]2NS(=O)(=O)c1cccc(C(F)(F)F)c1`, the GI50 was 10.1 µM and the TGI is 21.8 µM. The compound `O=C(c1ccco1)n1c2ccc(Br)cc2c2nc3ccccc3nc21` returned a TGI of more than 100 µM. As for `Cc1nc(Nc2ccc(F)cc2)c2sc(=S)n(-c3ccc(F)cc3)c2n1`, the TGI stood at 25.3 µM. The same measure, in the same setting: to `C/C(=N\Nc1ccccc1Br)c1cccc(/C(C)=N/Nc2ccccc2Br)n1` belongs more than 100 µM.

As for `COc1cc(C(O)c2nc3ccccc3s2)cc(OC)c1OC` (configuration not stated), the GI50 was more than 100 µM and the TGI is more than 100 µM. For the compound `CCCCn1cnnc1NS(=O)(=O)c1cc(C)c(Cl)cc1SCC(=O)O`, the TGI is more than 10 µM. The same measure, in the same setting: the value for `O=C1NCCCC12CCCNC2=O` was more than 100 µM.

`Cc1cnc(/N=c2\sc(C)cn2-c2ncc(C)s2)s1` showed a TGI of more than 100 µM. `CC1CC2C(=O)N(c3ccccc3)C(=O)C2c2c1c1ccccc1n2Cc1ccccc1` (configuration not stated) showed a TGI of more than 100 µM.

`COP(=O)(OC)C(=NCc1ccccc1)NNc1ccc([N+](=O)[O-])cc1` returned a TGI of more than 100 µM. The compound `CN=CN(C)c1c2ccccc2nc2ccccc12` showed a TGI of more than 100 µM. As to `NC1CC(N)c2c(Br)sc(Br)c21` (configuration not stated), the TGI is more than 100 µM.

The compound `C(=C\c1nccs1)/c1cccc(/C=C/c2nccs2)n1` showed a TGI of more than 50 µM. Same read-out and setting: to `NC(=O)c1oc([N+](=O)[O-])c(-c2ccccc2)c1-c1ccccc1` belongs 49.3 µM; to `Cc1cccc2c(=O)c3c(O)cc(O)cc3[nH]c12`, more than 10 µM. Same read-out and setting: the value for `O=C(/C=C/c1ccc(Cl)c(Cl)c1)c1ccc(F)cc1` was more than 100 µM.
